Here are results for 57 sequences from the supplement of paper PMC11417369.

Some of the results follow.

In the experiment the test system is PfSIP2 AP2 domain 1 (GST-tagged). Description: gcPBM binding intensity (ln(normalized median fluorescence intensity)); higher = stronger DNA binding. The essentials:
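Each value is the highest Masliner-normalised natural-log median intensity across replicate spots of either orientation of a probe. The probes were primer-extended double-stranded 36-bp intergenic genomic sequences on an Agilent 4 × 180k array, alongside negative controls, exposed for 1 h to GST-tagged P. falciparum DNA-binding domains expressed in E. coli. Bound protein was picked up with Alexa488 anti-GST antibody and scanned at 488 nm.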
On to “TTTTTATATTTTACATGTACATAAATATATTATATA [XGTACX_site958]”, for which the “gcPBM binding intensity (ln)” value was 7. As for “ATCACCAAATGGGCTATACAACAATGAGAAATGGTA [CACACA_negctrl_site48]”, the figure is 6.91; as for “TTCACATGAAGAATTAAAATAAAACTAGGAAATTAA [CACACA_negctrl_site1047]”, 6.74.

With “ATACGAAGAAATGTTCATTTATTTCGAACATTTAAT [CACACA_negctrl_site1481]”, the “gcPBM binding intensity (ln)” value is 6.65. The result for “TTTTTCATAAAACACACACACAAAAATAATGTGGAA [CACACA_site3687]” reads 6.92. With “AATATAATATAATATAGTACGTAAAAATATTATACA [XGTACX_site2170]”, the “gcPBM binding intensity (ln)” value was found to be 7.14. The result for “TTATTATTTGGTTATAGTACATAATATAATATATAT [XGTACX_site6911]” reads 7; that for “CTATATTTCGTTGGACGTACAAATGTGATAATTAGG [XGTACX_site3232]”, 7.31; that for “TATATATATATGTATGCATGTTGTTTTTTATTTAAT [TGCATGCA_site343]”, 9.27.

Regarding “TTTCTTTTTTCACGTGCATGCCATTTAAGTATTAAT [TGCATGCA_site651]”, the “gcPBM binding intensity (ln)” value was found to be 7.48. As for “TTTGTTTGGTTTTGGTGTACTTTTTTTTTTTTTTCT [XGTACX_site2050]”, the figure is 7.16; as for “AGAATTCAACAATGTTGTACATACACACACACAAAA [XGTACX_site5035]”, 7.41; as for “GAATTATAAGAATAAACACACAAGCTTAAAAAAAAA [CACACA_site1204]”, 6.85.

Regarding “ACATATGTATAATATGCACACGTCATTTTCCCCTTA [CACACA_site5194]”, the “gcPBM binding intensity (ln)” value is 7.12. As for “ACTAAACTTATATGTACACACATATAACATTAATTT [CACACA_site2258]”, the figure is 7.3; as for “ATGTATTTATTTTAACGTACAAGATATTATTATTAT [XGTACX_site4609]”, 7.15; as for “AAATTATATATGATGTGTACATAAATATATACACAT [XGTACX_site8761]”, 7.14. On to “ATATGGCATATTTGTATTATACATACATATGTATCT [TGCATGCA_negctrl_site562]”, for which the “gcPBM binding intensity (ln)” value stood at 7.07. As for “AAATTATAATATAATACACACATAAAAAAAAAAAAA [CACACA_site7]”, the figure is 6.94.

With “TTATTATTCAAGAGGAGTACATTATGTGTATAATAT [XGTACX_site4995]”, the “gcPBM binding intensity (ln)” value stood at 7.08. The result for “TATATTTAGAGAGAGACACACAAAGGGACTTACACA [CACACA_site2545]” reads 6.93; that for “CTAATTGTGTATACCTGTACATATATATATATATAT [XGTACX_site416]”, 9.45; that for “AAAAAAAAAAAGAACACACACAGTGCACATTCGGTG [CACACA_site788]”, 10.3. For the sequence “TGTTATTCTACATATACACACAAATAACAATTTAAA [CACACA_site1824]”, the “gcPBM binding intensity (ln)” value was 7.22.

On to “TTAACTTTTTTATATGCACACATAAACAAGGATATA [CACACA_site8932]”, for which the “gcPBM binding intensity (ln)” value stood at 7.78.

As for “AATACAAAAAAAGGTACACACATAATATATTTATTA [CACACA_site2628]”, the “gcPBM binding intensity (ln)” value came to 7.11. As for TTTCCCTCAAATAAAGTGCATTATGATTTTAATTTA, the figure is 8.75. The result for “TAATTATTTTCGGTACGTACTAATGTATATATAATT [XGTACX_site3895]” reads 7.13; that for “TAATAATTTTTTTTTTTTTTTTACGAAAATATGATT [GTGCAC_negctrl_site323]”, 6.67. As for “ATAATAAGAACTCAGTGTACTATCCTTTGAATTAAC [XGTACX_site8117]”, the figure is 6.9; as for “AACGTCTTTTTTTTTTTTTTTCTTTTTTTTTTTATT [CACACA_negctrl_site303]”, 6.69; as for TAATTCTTGTAAAATGTGCGCAGTAGATATAGTTTT, 7.35. As for “AGATATAAGAAAAGCACACACACACTAGAAAAAAAA [CACACA_site5559]”, the “gcPBM binding intensity (ln)” value is 7.05. As for “ATATTTATTCAATCCAGTACATATTATATATTGTAT [XGTACX_site184]”, the “gcPBM binding intensity (ln)” value is 7.07. The result for “ATAAAATTATATACGTGTACATATATATATTTATGT [XGTACX_site4653]” reads 7.06. As for “ACACATCAAATATAAAAAAAAAATAACTATAAATAA [CACACA_negctrl_site587]”, the figure is 7.09.

Turning to “TATAAAAGTGGACACACACACATATATATATATATA [CACACA_site4673]”, the “gcPBM binding intensity (ln)” value was 9.47. As for “AATTTTTTTTTTTTGTTGCACTTTTAGAGTTTTAAT [GTGCAC_site9519]”, the figure is 8.31; as for “CCTTTAAGCAAAAACACACACACATATTTATTTATA [CACACA_site6294]”, 6.99.

For the sequence “TAATAAATAGGACACACACACATATTTATATATCAT [CACACA_site6771]”, the “gcPBM binding intensity (ln)” value came out at 6.98. As for “TTGCAAAATTGTTTTATCACAAATATATACTTAATA [CACACA_negctrl_site403]”, the figure is 6.89. For the sequence “TTTCTTTTTATATTCACACATAAATATATATATATA [CACACA_site6053]”, the “gcPBM binding intensity (ln)” value was found to be 8.54. Regarding “AAAAAAAAAAAACACACACACACATACCCATACATA [CACACA_site5575]”, the “gcPBM binding intensity (ln)” value stood at 7.5. For the sequence “TATATAAGGAAATATTGTACTTTTATATTTATATTA [XGTACX_site3814]”, the “gcPBM binding intensity (ln)” value is 6.74. As for “ATATAAAAATATAATACACACATAAAATATATTATA [CACACA_site969]”, the figure is 6.93. As for “TGTATGCTTACATAATGTACGGAAAAATAAAGGCAT [XGTACX_site6923]”, the figure is 7.59; as for “ATATATAAATAATGTTGTACGTATTTCAAAAGTATG [XGTACX_site3363]”, 7.29; as for “ATAATAATAATAAAAAGTACAAATTATTATATATAT [XGTACX_site5160]”, 7.35.

As to “TGCTCTCTCTTGTTGTGTACATAATACAATATATAT [XGTACX_site7427]”, the “gcPBM binding intensity (ln)” value amounted to 7.86. The result for “TACATTTAAAAAAAAACACACATATATATATATATA [CACACA_site2535]” reads 9.57; that for “ATATATTTGTATAATAGTACGTACAGGCAAAATATA [XGTACX_site7396]”, 7.79. As for “TATAACAAAAAAAAATAAAAAATAAAACTATATATA [CACACA_negctrl_site504]”, the figure is 6.67. For “TTTTTTTTTTATTCTTCACACATTTCCAATAAAAAA [CACACA_site5601]”, the “gcPBM binding intensity (ln)” value is 7.13. The result for “ACCTAAAATAACTACACACACATAAAAAAAAAAAAA [CACACA_site2529]” reads 7.27; that for “GTTATTATATATATGTGTACTTAAAAATTTTATGTC [XGTACX_site6084]”, 7.41; that for “AAAAAAAAAAAAAAAACACACAGAAATATATATATA [CACACA_site4611]”, 8.8. As to “AAAGAAGGGAAACACACACACACACCCACAAAAAAA [CACACA_site3766]”, the “gcPBM binding intensity (ln)” value came to 7.04.
